Assay results taken from publication PMC6733861.
No constants are given. Whether binding was seen depends on the method and setting. Binding seen in cells or lysates may run through a third protein. Some entries that bind do so weakly or less than the wild type. Each block holds one substance with its values, some of them ahead of it.

Protein sequences, listed by entry. Tags and fused reporters are not part of them. Residues count along the entry.
UniProt P19490, residues 19-907: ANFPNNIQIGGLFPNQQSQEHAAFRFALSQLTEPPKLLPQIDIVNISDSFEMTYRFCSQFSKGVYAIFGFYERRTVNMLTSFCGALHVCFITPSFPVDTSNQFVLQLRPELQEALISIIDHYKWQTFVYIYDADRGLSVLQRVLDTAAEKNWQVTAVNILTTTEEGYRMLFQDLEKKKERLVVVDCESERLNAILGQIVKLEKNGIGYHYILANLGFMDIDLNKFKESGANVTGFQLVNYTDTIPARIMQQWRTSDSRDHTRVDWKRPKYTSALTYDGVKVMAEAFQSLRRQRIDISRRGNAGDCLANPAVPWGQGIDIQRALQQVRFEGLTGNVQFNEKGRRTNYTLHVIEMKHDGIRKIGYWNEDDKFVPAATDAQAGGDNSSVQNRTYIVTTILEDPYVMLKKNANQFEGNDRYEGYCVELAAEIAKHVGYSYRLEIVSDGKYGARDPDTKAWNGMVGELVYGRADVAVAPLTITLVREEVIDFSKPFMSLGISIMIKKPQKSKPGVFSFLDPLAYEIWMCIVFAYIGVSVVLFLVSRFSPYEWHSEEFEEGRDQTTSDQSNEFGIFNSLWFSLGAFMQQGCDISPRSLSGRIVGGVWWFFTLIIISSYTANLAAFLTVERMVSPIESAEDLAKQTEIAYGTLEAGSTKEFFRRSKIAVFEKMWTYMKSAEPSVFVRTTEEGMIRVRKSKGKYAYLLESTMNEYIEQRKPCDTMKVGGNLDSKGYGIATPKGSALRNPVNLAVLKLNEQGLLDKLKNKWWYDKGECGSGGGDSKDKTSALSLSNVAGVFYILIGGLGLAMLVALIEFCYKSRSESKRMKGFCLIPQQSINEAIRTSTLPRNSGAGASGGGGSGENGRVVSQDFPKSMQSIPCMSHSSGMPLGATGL
UniProt P19491, residues 22-883: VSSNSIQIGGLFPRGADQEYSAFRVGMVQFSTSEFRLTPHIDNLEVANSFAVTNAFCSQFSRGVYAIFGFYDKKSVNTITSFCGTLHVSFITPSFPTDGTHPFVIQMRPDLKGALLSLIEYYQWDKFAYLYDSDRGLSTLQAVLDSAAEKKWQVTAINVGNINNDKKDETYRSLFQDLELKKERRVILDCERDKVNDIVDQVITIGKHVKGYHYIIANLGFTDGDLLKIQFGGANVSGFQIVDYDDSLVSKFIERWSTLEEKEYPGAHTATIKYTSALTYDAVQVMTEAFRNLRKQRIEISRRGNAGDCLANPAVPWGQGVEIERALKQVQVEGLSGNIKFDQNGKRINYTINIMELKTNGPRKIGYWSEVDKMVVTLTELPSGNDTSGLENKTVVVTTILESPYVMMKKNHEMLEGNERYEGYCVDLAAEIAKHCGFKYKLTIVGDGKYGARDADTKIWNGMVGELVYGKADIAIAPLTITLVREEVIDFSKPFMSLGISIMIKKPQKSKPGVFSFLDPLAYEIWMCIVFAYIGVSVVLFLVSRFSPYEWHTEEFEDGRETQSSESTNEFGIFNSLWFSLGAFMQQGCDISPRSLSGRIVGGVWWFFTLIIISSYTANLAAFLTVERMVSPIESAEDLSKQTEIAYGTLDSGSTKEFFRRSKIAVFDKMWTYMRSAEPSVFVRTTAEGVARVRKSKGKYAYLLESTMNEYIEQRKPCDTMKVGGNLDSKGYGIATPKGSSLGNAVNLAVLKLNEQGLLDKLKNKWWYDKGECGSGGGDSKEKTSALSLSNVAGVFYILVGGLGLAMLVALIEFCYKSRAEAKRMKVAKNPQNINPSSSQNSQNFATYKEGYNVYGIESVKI
UniProt P46462: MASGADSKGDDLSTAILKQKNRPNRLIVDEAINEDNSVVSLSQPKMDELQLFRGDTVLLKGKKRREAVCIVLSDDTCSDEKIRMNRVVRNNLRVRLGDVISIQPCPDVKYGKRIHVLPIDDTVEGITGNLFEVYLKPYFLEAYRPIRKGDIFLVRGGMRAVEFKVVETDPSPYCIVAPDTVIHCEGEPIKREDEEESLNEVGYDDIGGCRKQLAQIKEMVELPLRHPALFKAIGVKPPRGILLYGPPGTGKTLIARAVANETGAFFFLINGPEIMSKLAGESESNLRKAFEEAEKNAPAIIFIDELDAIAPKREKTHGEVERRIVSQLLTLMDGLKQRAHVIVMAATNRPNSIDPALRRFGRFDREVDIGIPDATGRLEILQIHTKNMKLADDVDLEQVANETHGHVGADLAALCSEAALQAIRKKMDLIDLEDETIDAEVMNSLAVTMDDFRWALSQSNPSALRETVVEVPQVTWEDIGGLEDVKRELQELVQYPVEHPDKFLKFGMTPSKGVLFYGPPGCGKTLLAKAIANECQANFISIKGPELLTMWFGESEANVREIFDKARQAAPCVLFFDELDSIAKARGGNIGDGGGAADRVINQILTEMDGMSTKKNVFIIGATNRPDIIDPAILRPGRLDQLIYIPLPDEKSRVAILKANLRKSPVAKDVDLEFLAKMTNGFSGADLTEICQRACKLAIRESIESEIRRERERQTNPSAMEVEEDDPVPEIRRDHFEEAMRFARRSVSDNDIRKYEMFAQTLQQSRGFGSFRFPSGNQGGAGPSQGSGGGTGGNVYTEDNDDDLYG

How the values were obtained:
[1] = target: HA-GluA1 (UniProt P19490); experiment: co-IP; COS7 cells co-transfected with p97 and HA-GluA1, HA-GluA2 or a GluA1 deletion or swap construct; RIPA lysate; IP with anti-GluA1, anti-GluA2 or anti-HA; blot for p97; also after DBeQ (0, 0.1, 1, 10, 50 μM; 30 min) on the cells
[2] = target: HA-GluA2 (UniProt P19491); experiment: as above
[3] = target: HA-GluA1 (UniProt P19490); experiment: co-IP; COS7 cells co-transfected with equal amounts of p97 and HA-GluA1 plasmids and various amounts of non-tagged GluA2 plasmid; IP with anti-GluA1, blot for p97
[4] = target: p97-GFP (UniProt P46462); experiment: co-IP; COS7 cells co-transfected with p97-GFP and HA-GluA1 or HA-GluA2; RIPA lysate; GFP-Trap 1 h at 4 °C
[5] = target: GluA2 subunit of native AMPARs, endogenous (rat (endogenous in hippocampus)) (UniProt P19491); experiment: co-IP; rat hippocampal homogenates in RIPA buffer, IP with anti-GluA1 or anti-GluA2, protein A-sepharose, 4 °C, washes with 500 mM NaCl; blot with anti-p97
[6] = target: GluA1 subunit of native AMPARs, endogenous (rat (endogenous in hippocampus)) (UniProt P19490); experiment: as above
[7] = target: GluA1 subunit of native AMPARs, endogenous (rat (endogenous in hippocampus)) (UniProt P19490); experiment: co-IP; cultured rat hippocampal neurons (14 DIV), RIPA lysate, IP with anti-GluA1, blot for p97; cells untreated or treated with glycine (200 μM, 3 min; chemical LTP, time course), NMDA (10 μM, 3 min; chemical LTD) or DBeQ (11 μM, 30 min)

binding [1]: binds
binding [2]: no binding
binding [3]: binds
Substance: p97 expressed in mammalian cells (pcDNA3.1) (from UniProt P46462 1-806)

binding [4]: binds
Substance: HA-GluA1 (from UniProt P19490 19-907) (receptor)

binding [5]: no binding
binding [6]: binds
binding [7]: binds
Substance: p97 (valonsin-containing protein), endogenous (from UniProt P46462 1-806)

binding [4]: no binding
Substance: HA-GluA2 (from UniProt P19491 22-883) (receptor)
